Test in all cases: glycan array binding signal (z-score within array); higher = stronger binding
Common to all, as to details: glycan notation: IUPAC condensed, linker removed; mutation: H84T

The target of experiment [1] is GlcNAc(a1-6)Gal(b1-4)GlcNAc. The gist of the method: (§1)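 From the Consortium for Functional Glycomics database, 3228 arrays were curated, keeping only those whose protein sequence was available. Binding is given as a within-array Z-score averaged across arrays sharing a protein sequence and across linkers. Negative Z-scores can be read as non-binding.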
Experiment [2] deals with GlcNAc(b1-2)Gal(b1-3)GalNAc. A digest of the protocol: as §1
The target of experiment [3] is GlcNAc(b1-2)Man(a1-3)[GlcNAc(b1-2)Man(a1-6)]Man(b1-4)GlcNAc(b1-4)GlcNAc. A digest of the protocol:
as §1

Experiment [4] has as its target GlcNAc(b1-2)Man(a1-3)[GlcNAc(b1-2)Man(a1-6)]Man(b1-4)GlcNAc(b1-4)[Fuc(a1-6)]GlcNAc. The gist of the method: as §1
In experiment [5] the target is GlcNAc(b1-2)Man(a1-3)[GlcNAc(b1-4)][GlcNAc(b1-2)Man(a1-6)]Man(b1-4)GlcNAc(b1-4)GlcNAc. The gist of the method: as §1
Experiment [6] addresses GlcNAc(b1-2)Man(a1-3)[GlcNAc(b1-4)][GlcNAc(b1-2)Man(a1-6)]Man(b1-4)GlcNAc(b1-4)[Fuc(a1-6)]GlcNAc. A digest of the protocol: as §1
For experiment [7], the target named is GlcNAc(b1-2)[GlcNAc(b1-4)]Man(a1-3)[GlcNAc(b1-2)Man(a1-6)]Man(b1-4)GlcNAc(b1-4)GlcNAc. A digest of the protocol: as §1
Experiment [8] has as its target GlcNAc(b1-2)[GlcNAc(b1-4)]Man(a1-3)[GlcNAc(b1-4)][GlcNAc(b1-2)Man(a1-6)]Man(b1-4)GlcNAc(b1-4)GlcNAc. The gist of the method:
as §1

Experiment [9] concerns the target GlcNAc(b1-2)[GlcNAc(b1-4)]Man(a1-3)[GlcNAc(b1-4)][GlcNAc(b1-2)[GlcNAc(b1-6)]Man(a1-6)]Man(b1-4)GlcNAc(b1-4)GlcNAc. A digest of the protocol: as §1
Experiment [10] addresses GlcNAc(b1-2)[GlcNAc(b1-4)]Man(a1-3)[GlcNAc(b1-4)][GlcNAc(b1-2)[GlcNAc(b1-6)]Man(a1-6)]Man(b1-4)GlcNAc(b1-4)[Fuc(a1-6)]GlcNAc. The gist of the method: as §1
Experiment [11] has as its target GlcNAc(b1-2)[GlcNAc(b1-6)]Man(a1-6)[GlcNAc(b1-2)Man(a1-3)]Man(b1-4)GlcNAc(b1-4)GlcNAc. The gist of the method:
as §1

The target of experiment [12] is GlcNAc(b1-2)[GlcNAc(b1-6)]Man(a1-6)[GlcNAc(b1-2)Man(a1-3)]Man(b1-4)GlcNAc(b1-4)[Fuc(a1-6)]GlcNAc. A digest of the protocol:
as §1

In experiment [13] the target is GlcNAc(b1-2)[GlcNAc(b1-6)]Man(a1-6)[GlcNAc(b1-4)][GlcNAc(b1-2)Man(a1-3)]Man(b1-4)GlcNAc(b1-4)GlcNAc. A digest of the protocol: as §1
In the next experiment the target is GlcNAc(b1-3)Fuc. The gist of the method: as §1
For a further experiment, the target named is GlcNAc(b1-3)Gal. A digest of the protocol:
as §1

Experiment [14] addresses GlcNAc(b1-3)Gal(b1-3)GalNAc. The gist of the method:
as §1

Another experiment addresses GlcNAc(b1-3)Gal(b1-4)Glc. The gist of the method: as §1
The target in experiment [15] is GlcNAc(b1-3)Gal(b1-4)GlcNAc. The gist of the method:
as §1

Experiment [16] concerns the target GlcNAc(b1-3)Gal(b1-4)GlcNAc(b1-2)Man(a1-3)[GlcNAc(b1-3)Gal(b1-4)GlcNAc(b1-2)Man(a1-6)]Man(b1-4)GlcNAc(b1-4)GlcNAc. A digest of the protocol: as §1
In experiment [17] the target is GlcNAc(b1-3)Gal(b1-4)GlcNAc(b1-2)Man(a1-3)[GlcNAc(b1-3)Gal(b1-4)GlcNAc(b1-2)Man(a1-6)]Man(b1-4)GlcNAc(b1-4)[Fuc(a1-6)]GlcNAc. The gist of the method:
as §1

The target of experiment [18] is GlcNAc(b1-3)Gal(b1-4)GlcNAc(b1-2)[GlcNAc(b1-3)Gal(b1-4)GlcNAc(b1-6)]Man(a1-6)[GlcNAc(b1-3)Gal(b1-4)GlcNAc(b1-2)Man(a1-3)]Man(b1-4)GlcNAc(b1-4)GlcNAc. A digest of the protocol: as §1
Experiment [19] addresses GlcNAc(b1-3)Gal(b1-4)GlcNAc(b1-3)Gal(b1-4)GlcNAc. The gist of the method:
as §1

This is one part of the list.

B1: Banana lectin (Musa acuminata) (protein)
chain: MNGAIKVGAWGGNGGSAFDMGPAYRIISVKIFSGDVVDGVDVTFTYYGKTETRHYGGSGGTPHEIVLQEGEYLVGMAGEVANYTGAVVLGKLGFSTNKKAYGPFGNTGGTPFSLPIAAGKISGFFGRGGKFLDAIGVYLEPLEHHHHHH
With B1, the “glycan array binding signal (z-score)” value in experiment [1] was -0.157; in experiment [2], -0.173; in experiment [3] it was -0.106; in experiment [4], -0.179; in [5] it was -0.181; in experiment [6], -0.176. Moreover, the “glycan array binding signal (z-score)” value in [7] is -0.164; in experiment [8] it was -0.19; in experiment [9] it was -0.193; in experiment [10] it was -0.156; in experiment [11], -0.182; in experiment [12], -0.12. The “glycan array binding signal (z-score)” value is -0.206 in experiment [13]; -0.179 with GlcNAc(b1-3)Fuc; -0.186 with GlcNAc(b1-3)Gal; -0.164 in experiment [14]; -0.173 in the experiment with GlcNAc(b1-3)Gal(b1-4)Glc; -0.188 in experiment [15]. Further, the “glycan array binding signal (z-score)” value in experiment [16] is -0.151; in experiment [17], -0.178; in [18], -0.125; in experiment [19] it was -0.214.

These data come from the supplement of paper PMC8728848.
